According to PubChem BioAssay AID1159614 (National Center for Advancing Translational Sciences (NCATS), 2016):
About 65 (0.1%) of roughly 45,000 compounds were called active. Calls follow the shape of the dose curve; as a rule, active = well fitted activation curve with a large enough effect; inconclusive = small, poorly fitted or top-dose-only effect; inactive = no such curve, though single readings can be large or run the other way. The list shows a part of the results.

Target: Galactocerebrosidase (Homo sapiens) (UniProt P54803)
Chain of UniProt P54803 (P54803 whole entry, looked up): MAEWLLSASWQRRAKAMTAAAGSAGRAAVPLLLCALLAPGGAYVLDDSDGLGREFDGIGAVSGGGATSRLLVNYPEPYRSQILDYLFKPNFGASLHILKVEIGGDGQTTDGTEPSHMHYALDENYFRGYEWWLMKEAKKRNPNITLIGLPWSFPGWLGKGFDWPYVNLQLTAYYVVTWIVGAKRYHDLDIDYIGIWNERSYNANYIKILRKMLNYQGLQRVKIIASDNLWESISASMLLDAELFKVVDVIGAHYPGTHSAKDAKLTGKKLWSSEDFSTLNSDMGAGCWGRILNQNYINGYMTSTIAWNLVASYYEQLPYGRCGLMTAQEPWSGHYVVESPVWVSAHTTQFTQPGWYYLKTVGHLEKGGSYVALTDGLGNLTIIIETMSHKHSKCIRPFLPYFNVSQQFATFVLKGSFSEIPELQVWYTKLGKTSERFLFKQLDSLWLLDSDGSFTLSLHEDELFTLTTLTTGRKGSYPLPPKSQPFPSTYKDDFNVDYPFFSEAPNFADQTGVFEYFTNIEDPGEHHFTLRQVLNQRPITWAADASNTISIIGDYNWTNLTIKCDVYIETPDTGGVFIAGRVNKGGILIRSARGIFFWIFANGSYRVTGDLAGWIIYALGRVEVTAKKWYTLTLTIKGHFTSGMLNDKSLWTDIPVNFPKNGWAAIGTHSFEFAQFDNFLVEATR
Experiment: A Novel Cell-Based Assay to Identify Small Molecules for B -Galactocerebrosidase; also: 0% is about no effect; nearly all actives have a fitted effect of over 65% in size
Conditions: 145M-Twi-hGALC-G270D cells, HMU-beta-Gal fluorescence, 48 h; series mostly up to 57.5 µM; activation: at the top concentration
Outline: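 qHTS, 1536-well; 145M-Twi-hGALC-G270D cells (WT line also made) in DMEM/F12 + 10% FBS; compound incubation on live cells; HMU-β-gal 0.1 mM final, pH 5.2, NaTC; carbonate stop; fluorescence increase = enhanced residual activity.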

activation, inactive:
CCCCNC(=O)c1ccc2c(c1)NC(=O)C(CS(=O)(=O)Cc1ccc(F)cc1Cl)N2 (configuration not stated) -17.9%
COc1cccc(-c2ccc3c(N)c(C(=O)Nc4ccccc4C)sc3n2)c1 -3.26%
CC(=O)Nc1ccc(S(=O)(=O)N(Cc2ccccc2)Cc2ccccc2)cc1 7.65%
CCOc1ccccc1-c1nc(C(N)=O)c2c(n1)n(-c1ccc3c(c1)OCO3)c(=O)n2C -14.5%
CCn1c(=O)cc(SCC(=O)NCc2ccc(C)cc2)c2ccccc21 -15.3%
C=Cc1ccc(Cn2c(=O)n(CC3CCC(C(=O)NC(C)C)CC3)c(=O)c3sccc32)cc1 (configuration not stated) -16.2%
O=C(NCc1ccco1)c1ccc2c(c1)N(Cc1ccccc1F)C(=O)c1ccccc1S2(=O)=O -19%
COCCNc1ccc(-c2nc(-c3ccccn3)no2)cc1[N+](=O)[O-] -24.1%
Nc1ccc2oc(Cc3ccc(Cl)cc3)nc2c1 -8.19%
COc1ccc(C)cc1NC(=O)Cc1c(C(=O)O)c(C)cn1C -9.97%
CC(C)CCNC(=O)c1ccc2c(c1)nc1n2CCCCC1 -0.255%
CCCC(=O)Nc1ccc2nc(SCc3ccc(C)cc3)sc2c1 -12.2%
Cc1cccc(N2CCN(c3nc4ccccc4c4nc(-c5cccnc5)nn34)CC2)c1C -12.2%
Cc1ccc(CCNC(=O)c2cc3c(=O)n(C)c4ccccc4c3n2C)cc1 -9.79%
CC(=O)c1cccc(NC(=O)CSc2nc3c(=O)n(C)c(=O)n(C)c3n2C)c1 1.9%
CC(C)CCn1c(=O)c2sccc2n2c(CCCC(=O)NC(C)c3ccccc3)nnc12 (configuration not stated) -11.1%
Cc1cccc(-n2cnc3cc(C(=O)NC4CCCCCC4)ccc32)c1 -50%
Cc1cccc(OCC(=O)Nc2ccccc2C(=O)OCc2cc(=O)n3nc(C4CC4)sc3n2)c1 -6.25%
CCc1cnc2c(c1SCCC(C)C)c(=O)n(C)c(=O)n2C -7.82%
CCOC(=O)c1ccc(NC(=O)c2c(NCc3cc(OC)ccc3OC)sc3c2CCC3)cc1 -9.06%
Cc1ccc2cc3cc(C(=O)N(C)c4ccccc4C)oc3nc2c1 -10.1%
CCc1cccc(N2C(=O)N(Cc3c(F)cccc3Cl)c3ccccc3S2(=O)=O)c1 -2.65%
CCn1cc(C(=O)Nc2ccc(C(C)C)cc2)c2cc(OC)c(OC)cc2c1=O -5.74%
Cc1cccc(C)c1NC(=O)CN1C(=O)c2ccccc2Sc2ncccc21 -17.7%
COc1ccc(C)cc1NC(=O)CN1CCN(S(=O)(=O)c2ccc(Br)cc2)CC1 10.8%
COC(=O)c1cc2sc(C)cc2n1CC(=O)Nc1ccc(C)cc1Cl -14.8%
CC(C)OCCCNC(=O)c1nn(C)c2c1CSc1ccccc1-2 -1.84%
CCCOC(=O)c1ccc(Nc2c(C(=O)OCC)cnc3c(C)cc(Cl)cc23)cc1 -5.07%
COc1ccc(-c2noc(CSc3nnc(-c4ccccc4)n3C)n2)cc1 -8.47%
COc1ccc(-n2cc(C(=O)NC(C)c3ccccc3)c3ccccc3c2=O)cc1 (configuration not stated) -2.75%
O=C(NC1CCCC1)c1ccc(CSc2nc3ccncc3n2Cc2ccc(F)cc2)cc1 -1.47%
Cc1ccc(N2CC(c3nnc(NC(=O)c4ccco4)s3)CC2=O)cc1C (configuration not stated) -12.1%
CCOc1ccc(NC(=O)c2ccc(-c3cccc(Cl)c3C)o2)cc1 -8.99%
Cc1ccc(NC(=O)Cn2cc(S(=O)(=O)N3CCCC3)c(S(=O)(=O)N3CCCC3)c2)cc1C -27.1%
CCN1CCN(c2cc(C)c3cc(NC(=O)/C=C/c4cccc(Cl)c4)ccc3n2)CC1 -7.87%
CCCCC[C@H](O)C=C[C@H]1[C@H](O)CC(=O)[C@H]1CC=CCCCC(=O)O -11.2%
CCOc1ccc(Cn2c(CNS(=O)(=O)c3ccc([N+](=O)[O-])cc3)nc3cccnc32)cc1 -4.76%
O=c1c2cc3c(nc2ncn1Cc1ccccc1F)CCCC3 -18.7%
CCOC(=O)c1cnc2c(ccc3ccccc32)c1Nc1ccc(OC)c(OC)c1 -7.03%
Cc1cccc(C2C=C(c3ccc(F)cc3)Nc3nc4ccccc4n32)c1 (configuration not stated) -2.72%
Cc1ccc(NC(=O)Nc2nnc(SCC(=O)N3CCC(C)CC3)s2)cc1 -5.29%
COc1ccc(C(=O)NCCSc2c(C)[nH]c3ccccc23)cc1 -36.8%
COCCn1ccc2c(OCC(=O)NCc3ccc(F)cc3)cccc2c1=O -15.5%
COc1ccc(C(=O)N2CCC(c3c[nH]c4ccccc34)(c3c[nH]c4ccccc34)CC2)cc1 -17.3%
COc1ccccc1-c1cc(C(F)(F)F)nc(S(=O)(=O)CCCC(=O)Nc2ccc(F)c(Cl)c2)n1 -6.73%
Cc1ccc(C)c(CN2C(=O)c3ccccc3S(=O)c3ccc(C(=O)NCCc4ccc(Cl)cc4)cc32)c1 (configuration not stated) 4.64%
Cc1c(NS(C)(=O)=O)cccc1-c1nc2ccccc2s1 -3.81%
COc1ccc(NC(=O)c2sc3nc(-c4cc5cccc(OC)c5oc4=O)[nH]c(=O)c3c2C)cc1 -10.2%
COc1ccccc1CNC(=O)c1oc2c(c1C)-c1nn(Cc3ccc(Cl)cc3)cc1CC2 -7.28%
COc1ccc(NC(=O)c2cc(C3CC3)nc3c2c(C)nn3-c2ccc(C)cc2)cc1OC -16.2%
CN(C)c1ccc(CNC(=O)C2CCN(S(=O)(=O)c3cn(C)cn3)CC2)cc1 -17.6%
CCOc1ccc(N(CC)S(=O)(=O)N2CCCC(C(=O)NCc3ccc(SC)cc3)C2)cc1 (configuration not stated) -18.6%
COc1cccc(CNC(=O)NCc2noc3ccc(C)cc23)c1 -18.6%
COc1ccc(NC(=O)Nc2nnc(N3CCCCCC3)s2)c(OC)c1 -22.8%
COc1ccc(NC(=O)CN2C(=O)COc3ccc(S(=O)(=O)N4CCOCC4)cc32)cc1Cl -9.62%
COc1ccc(N2CCN(C(=O)CCS(=O)(=O)c3cc(Br)cc4c3N(C(=O)C3CC3)CC4)CC2)cc1 -10.9%
Cc1ccc(NC(=O)CN2C=NS(=O)(=O)c3ccccc32)c(C)c1 -18.7%
COc1ccccc1C(=O)Nc1ccc(C(=O)OCc2cc(=O)n3ccsc3n2)cc1 3.85%
COc1ccccc1C(=O)NC(=O)Nc1ccc(-n2nc(C(F)(F)F)cc2C(F)(F)F)cc1 -14.5%
Cc1ccc(N2CC(NC(=O)CCc3ccccc3)CC2=O)cc1 (configuration not stated) -12.1%
COc1ccc(-c2ccc3c(N)c(C(=O)Nc4cccc(C)c4)sc3n2)cc1 -23.9%
COc1cccc(CSc2nc3n(n2)C(c2cccnc2)C(C(=O)Nc2ccccc2C)=C(C)N3)c1 (configuration not stated) -7.18%
CC1=C(C(=O)NCc2ccc(Cl)cc2)C2(CCCCCC2)OC1=O 13.1%
CCOC(=O)CCn1nc(C)c2c(C)n(-c3ccccc3)nc2c1=O -12.6%
Cc1cccc(N2CCN(C(=O)Cn3c(=O)c4cccn4c4ccc(F)cc43)CC2)c1C -14.5%
Cc1nc2cc(C(=O)O)ccc2n1-c1ccc(C(C)C)cc1 -15.9%
CCOC(=O)c1sc(NC(=O)c2cc3nc(-c4ccc(Br)cc4)cc(C(F)(F)F)n3n2)c(C(=O)OCC)c1C -6.61%
COc1ccc(OC)c(CNC(=O)CN2C(=O)CCn3nc(-c4cn(C)c5ccccc45)cc32)c1 -18.2%
N#Cc1ccc(NS(=O)(=O)c2ccc(-c3cnc(C4CC4)o3)cc2)cc1 -17.4%
Cc1ccc(NC(=O)c2ccc(Br)cc2)c(C(=O)c2ccccc2)c1 -9.37%
CC(C)CC(=O)Nc1ccc(Cl)c(-c2nc3ccccc3[nH]2)c1 -5.58%
Cc1nc2nc(SCC(=O)NCc3ccccc3)nn2c(C)c1Cc1ccccc1 -8.46%
CCc1cccc(NC(=O)CN2C=NS(=O)(=O)c3ccccc32)c1 -16.2%
CNC(=O)c1ccc(Nc2nnc(-c3ccc(C)c(S(=O)(=O)N4CCOCC4)c3)c3ccccc23)cc1 -13.1%
Cc1ccc(C)n1-c1nnc(N2CCCC(C(=O)NCc3ccccc3)C2)s1 (configuration not stated) -16.8%
COc1cc2nc(NCC(C)c3ccccc3)n3nc(-c4ccccc4)nc3c2cc1OC (configuration not stated) -17%
Cc1ccc(NC(=O)CCc2c(C)nc3nc(C)nn3c2C)c(Cl)c1 2.19%
CCOc1nc(NC(=O)NS(=O)(=O)Oc2ccccc2Cl)nc(-c2ccccc2)n1 -11.8%
CC(=O)Oc1ccccc1C(=O)O -9.8%
O=C(NCc1ccccc1)C(=O)NCC(c1cccnc1)N1CCN(c2ccccc2)CC1 (configuration not stated) -4.24%
COc1ccc(CCNC(=O)c2nn(C)c3c2CSc2ccccc2-3)cc1OC -9.55%
Cc1ccc(N(Cc2cccs2)C(=O)COc2ccccc2[N+](=O)[O-])cc1 -6.14%
CC(=O)Nc1ccc(S(=O)(=O)NCCc2csc3nc(-c4cccc(C)c4)nn23)cc1 -17.2%
O=C(c1ccco1)n1nc(-c2ccccc2)nc1NCc1ccccc1Cl -20.2%
O=C(NCc1ccccc1Cl)C1CCC(CNS(=O)(=O)c2ccc(Br)s2)CC1 (configuration not stated) -12.9%
CCc1ccc(NC(=O)CSc2nc3ccsc3c(=O)n2C(C)CC)cc1 (configuration not stated) 4.27%
Cc1cccc(-c2nc(Cn3c(SCc4cc(C)ccc4C)nc4ccncc43)c(C)o2)c1 -10.1%
COc1ccccc1-n1c(SCC(=O)Nc2ccc(C)cc2)nc(O)cc1=O -11.8%
COc1cc(CN(C(=O)c2oc3ccccc3c2C)C2CCS(=O)(=O)C2)cc(OC)c1OC (configuration not stated) -4.07%
O=C(CCCn1c2ccccc2c(=O)c2ccccc21)Nc1ccc(F)cc1Cl -15.3%
Cc1ccc(-c2nn3c(-c4ccc(C)cc4)nnc3c3ccccc23)cc1 -8.79%
CNS(=O)(=O)CCc1ccc2[nH]cc(C3CCN(C)CC3)c2c1 -3.61%
COc1ccc(-c2noc(-c3ccc(NC(C)c4ccccc4)c([N+](=O)[O-])c3)n2)cc1OC (configuration not stated) 1.09%
CCc1ccc(-c2cc(C)no2)cc1S(=O)(=O)Nc1ccc(Cl)cc1 -9.5%
COc1cccc(NC(=O)c2cc3c(=O)n(Cc4cccnc4)ccc3nc2C)c1 -9.63%
COc1ccccc1CNC(=O)CCC1N=C2c3ccccc3N=C(SCC(=O)NCCc3ccc(OC)c(OC)c3)N2C1=O (configuration not stated) -10.4%
Cc1ccc(-c2nc(S(=O)(=O)c3ccc(C)cc3)c(SCC(=O)NC3CCCCC3)o2)cc1 -25.9%
